This note sets out measurements from patent US20140308201A1 (Novartis, published 2014).

The target in assay [1] is T1, Human FGFR2 IIIb D1-3 (human).
T1 construct: Extracellular domains D1-3 with C-terminal tag, made in HEK293T; also called recombinant human FGFR2 IIIb; hFGFR2
T1 chain: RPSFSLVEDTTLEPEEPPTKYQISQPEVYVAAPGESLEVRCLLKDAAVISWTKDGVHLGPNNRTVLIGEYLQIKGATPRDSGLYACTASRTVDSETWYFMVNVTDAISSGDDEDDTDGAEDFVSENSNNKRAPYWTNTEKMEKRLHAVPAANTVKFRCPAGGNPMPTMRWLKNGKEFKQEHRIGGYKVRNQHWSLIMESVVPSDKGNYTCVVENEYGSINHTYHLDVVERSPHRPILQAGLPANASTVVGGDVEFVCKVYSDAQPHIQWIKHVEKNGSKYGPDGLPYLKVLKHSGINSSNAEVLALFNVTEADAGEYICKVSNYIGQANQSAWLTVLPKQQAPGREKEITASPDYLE
The experiment in a line: SPR Biacore, method as Example 2. (In SPR one partner is held on a chip, and binding of the other changes the refractive index at the surface.)

The target of assay [2] is T2, Cynomolgus monkey FGFR2 IIIb D1-3 (cynomolgus monkey).
T2 construct: also called Cyno FGFR2 IIIb
T2 chain: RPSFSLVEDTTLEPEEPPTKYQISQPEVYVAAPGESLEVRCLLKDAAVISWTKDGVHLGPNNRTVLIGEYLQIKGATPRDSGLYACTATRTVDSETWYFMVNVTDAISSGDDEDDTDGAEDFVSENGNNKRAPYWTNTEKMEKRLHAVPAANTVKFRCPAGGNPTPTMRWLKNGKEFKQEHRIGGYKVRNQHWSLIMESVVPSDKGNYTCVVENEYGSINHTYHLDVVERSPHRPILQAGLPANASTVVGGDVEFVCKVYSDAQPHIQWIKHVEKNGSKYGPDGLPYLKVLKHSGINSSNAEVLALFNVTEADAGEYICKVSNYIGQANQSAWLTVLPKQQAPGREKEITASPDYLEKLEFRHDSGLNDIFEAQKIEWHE
The experiment in a line: SPR Biacore, method as Example 2.

B1: 11725-MCC-DM1 (other)
heavy: QVQLLESGGGLVQPGGSLRLSCAASGFTFNTYWLHWVRQAPGKGLEWVSVISSDSSSTYYADSVKGRFTISRDNSKNTLYLQMNSLRAEDTAVYYCARDSRLDYWGQGTLVTVSSASTKGPSVFPLAPSSKSTSGGTAALGCLVKDYFPEPVTVSWNSGALTSGVHTFPAVLQSSGLYSLSSVVTVPSSSLGTQTYICNVNHKPSNTKVDKRV[human IgG1 Fc cut from this listing]
light: DIELTQPPSVSVSPGQTASITCSGDSIGDTYVDWYQQKPGQAPVLVIYDDIDRPSGIPERFSGSNSGNTATLTISGTQAEDEADYYCYVYAWTGTSNVFGGGTKLTVLGQPKAAPSVTLFPPSSEELQANKATLVCLISDFYPGAVTVAWKADSSPVKAGVETTTPSKQSNNKYAASSYLSLTPEQWKSHRSYSCQVTHEGSTVEKTVAPTECS
modifications: DM1 linked through MCC (SMCC) linker to lysine residues, sites not given; DM1 linked through MCC (SMCC) linker to lysine residues, sites not given, MAR 3.4
notes: antibody drug conjugate of 11725
For B1, the Kd (usually the equilibrium constant for the complex coming apart) in assay [1] is 2.9 nM.

B2: 10164-MCC-DM1 (other)
heavy: QVQLVESGGGLVKPGGSLRLSCAASGFTFSSYALSWVRQAPGKGLEWVGRIRSKIDGGTTDYAAPVKGRFTISRDDSKNTLYLQMNSLKTEDTAVYYCARDRSPSDSSAFAIWGQGTLVTVSSASTKGPSVFPLAPSSKSTSGGTAALGCLVKDYFPEPVTVSWNSGALTSGVHTFPAVLQSSGLYSLSSVVTVPSSSLGTQTYICNVNHKPSNTKVDKRV[human IgG1 Fc cut from this listing]
light: DIELTQPPSVSVSPGQTASITCSGDNLGSQYVDWYQQKPGQAPVLVIYDDNDRPSGIPERFSGSNSGNTATLTISGTQAEDEADYYCQSWDSLSVVFGGGTKLTVLGQPKAAPSVTLFPPSSEELQANKATLVCLISDFYPGAVTVAWKADSSPVKAGVETTTPSKQSNNKYAASSYLSLTPEQWKSHRSYSCQVTHEGSTVEKTVAPTECS
modifications: DM1 linked through MCC (SMCC) linker to lysine residues, sites not given; DM1 linked through MCC (SMCC) linker to lysine residues, sites not given, MAR 3.5
For the molecule B2, the Kd in assay [2] came out at 3.8 nM.
